In all, about 73,000 compounds went through this assay and about 1,800 (2.5%) were called active. The inconclusive results got no clear call from the source; some entries with a clear call stand among them for comparison. Calls come from the whole dose curve; as a rule, active = well fitted activation curve with a large enough effect; inconclusive = small, poorly fitted or top-dose-only effect; inactive = no such curve, though single readings can be large or run the other way. Potencies of inconclusive entries are left out as doubtful fits.
Assay: qHTS Assay for Agonists of the Thyroid Stimulating Hormone Receptor: Activators of Intracellular cAMP Concentrations in Parental HEK 293; note: nearly all actives have a fitted effect of over 55% in size; for activation: % of control where 0% means no effect
Details: parental HEK293 CNG cAMP sensor, membrane potential fluorescence; activation: at 57.1 µM (top of the series) unless noted
Summary of the method: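 Counterscreen for endogenous-receptor signalling: CNG-channel HEK 293 cells report cAMP rise by membrane depolarization. After 60 min dye equilibration with 100 uM RO 20-1724, compounds incubated 30 min before bottom-read fluorescence at 590 nm.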
Potency is the fitted concentration of half-maximal effect; tags give direction and shape of the fitted curve.

| Structure (SMILES) | Potency | activation |
| --- | --- | --- |
| CCOc1cc(C(=O)CSc2nnc(CNc3ccc(Cl)cc3)o2)ccc1NC(=O)CC | inconclusive [activator, single point] |  |
| Cc1cc(NC(=O)CSc2nnnn2C2CCCC2)no1 | inactive |  |
| COc1ccc(Cc2nnc(SCc3c(C)noc3C)n2C2CCCCC2)cc1OC | inconclusive [activator, partial curve] |  |
| Cc1nc2ccc(S(=O)(=O)NC(C(=O)NCc3ccco3)C(C)C)cc2s1 (stereo not given) | inconclusive [activator, single point] |  |
| CN(C)c1ncc2nc(-c3ccccc3)c(=O)n(Cc3ccc(F)cc3)c2n1 | active: 5.01 µM |  |
| O=S(=O)(O)c1ccccc1 | inconclusive [activator, single point] |  |
| CCOC(=O)C1=C(C)N=C2SC(CC)C(=O)N2C1c1cccc(F)c1 (stereo not given) | inconclusive [activator, single point] |  |
| CCN(CC)CCOC(=O)[C@@H](Cc1cccc2ccccc12)C[C@@H]1CCCO1 | inactive |  |
| Cc1cc(C)n(-c2ccc(C(=O)OCC(=O)c3ccc(Br)s3)cc2)n1 | inactive |  |
| CC(C)(C)c1ccc(OCc2nc(-c3ccccn3)no2)c(Br)c1 | inconclusive [activator, single point] |  |
| CCOC(=O)C(C(=O)Nc1cccc(C)n1)C1CCCCC1 (stereo not given) | inconclusive [activator, partial curve] |  |
| O=S(=O)(Nc1ccccc1F)c1ccc2nsnc2c1 | inconclusive [activator, single point] |  |
| O=C(NCCO)c1ccc(-n2c(=O)c(=O)[nH]c3ccccc32)cc1 | inactive |  |
| CCOC(=O)c1c(CN2CCC(C)CC2)oc2ccc(OC)cc12 | inconclusive [activator, partial curve] |  |
| COc1ccccc1-c1ccc2ncnc(N3CCOCC3)c2c1 | inconclusive [activator, partial curve, poor fit] |  |
| COC(=O)[C@@]1(Cc2ccc(OC)cc2)[C@H]2c3cc(C(=O)N(C)C)n(C[C@H](O)CO)c3C[C@H]2CN1C(=O)c1ccccc1 | inconclusive [activator, single point] |  |
| CC(C)NC[C@H](O)c1ccc2ccccc2c1 | inconclusive [activator, single point] |  |
| COc1cccc(-c2nnc(SCC(=O)Nc3ccc(OC)c(OC)c3)n2N)c1 | inconclusive [activator, single point] |  |
| N#Cc1nc(COc2ccccc2F)oc1NCCc1ccccc1 | inconclusive [activator, single point] |  |
| O=C(Nc1ccc(N2CCCC2=O)cc1)c1cccc(F)c1 | inactive |  |
| CCc1c(C)nc2cc(-c3cc(OC)cc(OC)c3)nn2c1N1CCCC1 | active: 20 µM |  |
| COc1ccc(OC)c(C(C(=O)NCc2ccco2)N(C(=O)Cn2nnc3ccccc32)C(C)C)c1 (stereo not given) | active: 15.8 µM |  |
| CC(C)=CCNc1ncnc2c1c(C#N)cn2[C@H]1O[C@@H](CO)[C@@H](O)[C@@H]1O |  | inactive: -3.68% [at 11.4 µM] |
| COc1ccc(N2C(=O)CC(Sc3nnc(-c4ccccc4)o3)C2=O)cc1 (stereo not given) | inconclusive [activator, single point] |  |

| Structure (SMILES) | Potency | activation |
| --- | --- | --- |
| COc1ccc(-c2nc3cnc(OC)nc3n(C[C@H]3CCCO3)c2=O)cc1 | active: 20 µM |  |
| CC1CCN(c2nncc3ccccc23)CC1 | inactive |  |
| O=C(Nc1cccc(F)c1)N1CCCC2(CCN(C(=O)c3cccc(F)c3)CC2)C1 | inconclusive [activator, single point] |  |
| C=CCn1c(SCC(=O)Nc2nccs2)nnc1-c1cc2cccc(OC)c2o1 | inconclusive [activator, single point] |  |
| COc1ccc(-n2c(=O)cc(N3CCc4ccccc43)[nH]c2=O)cc1 | inconclusive [activator, single point] |  |
| Cc1ccc(C(C)C)n1C(=O)OC(C)(C)C |  | inactive: 10.6% [at 11.4 µM] |
| COc1ccc(S(=O)(=O)N2CCCN(S(=O)(=O)c3ccc(OC)cc3C)CC2)c(C)c1 |  | inactive: 8.45% [at 11.4 µM] |
| COc1ccccc1-n1cnc(N)c1C(=O)c1ccccc1 | inconclusive [activator, partial curve] |  |
| Cc1cc(Br)ccc1OCc1nc(-c2cccnc2)no1 | inconclusive [activator, single point] |  |
| CCOc1ccc(N2C(=O)c3ccccc3C2O)cc1 (stereo not given) | inconclusive [activator, single point] |  |
| N=c1n(CCN2CCOCC2)c2ccccc2n1CC(O)COc1ccccc1 (stereo not given) | inconclusive [activator, partial curve] |  |
| Clc1ccccc1-c1ccc2ncnc(NC3CCNCC3)c2c1 | inactive |  |
| Nc1c(C(=O)NC2CCCC2)c2nc3ccccc3nc2n1/N=C/c1cccnc1 | inconclusive [activator, single point] |  |
| O=c1c(-c2ccc(Cl)cc2)coc2c(CN3CCOCC3)c(O)ccc12 | inconclusive [activator, single point] |  |
| O=C(O)Cc1ccc(-c2ccccc2)cc1 | inconclusive [activator, partial curve] |  |
| CCN=c1scc(-c2ccc3c(c2)NC(=O)CO3)n1N=C1CCCC1 | inactive |  |
| COc1ccc(-n2nc3c(c2NC(=O)c2c(-c4ccccc4Cl)noc2C)CS(=O)(=O)C3)cc1 | inconclusive [activator, partial curve] |  |
| CN1CCN(CC(=O)Nc2cccc3ccccc23)CC1 |  | inactive: 18% [at 11.4 µM] |
| O=C(O)[C@@H](O)[C@@H](O)[C@H](O)C(=O)CO | inconclusive [activator, single point] |  |
| CN1CCNC(=O)C1CC(=O)O (stereo not given) | inconclusive [activator, single point] |  |
| CCOC(=O)N/N=C1/C[C@@H](O)[C@@H](O)[C@@H]2[C@@H]3C(=O)N(Cc4ccc5c(c4)OCO5)C(=O)[C@H]3CC[C@H]12 |  | inactive: 1.63% [at 11.4 µM] |
| CCCCOc1ccccc1C1C(C(=O)OC)=CN(CC)C=C1C(=O)OC | inconclusive [activator, partial curve] |  |
| CC1CCc2nc(NC(=O)CN3CCOCC3)sc2C1 (stereo not given) | inactive |  |
| COc1ccc(NC(=O)CSc2nc3ccccc3c(=O)n2CCNC(C)=O)c(OC)c1 | inactive |  |

| Structure (SMILES) | Potency | activation |
| --- | --- | --- |
| CC1Cc2ccccc2N1S(=O)(=O)c1cccc(C(=O)OCC(=O)NC2CCS(=O)(=O)C2)c1 (stereo not given) | inactive |  |
| c1ccc(CSc2nnc(-c3cccs3)n2Cc2ccco2)cc1 | active: 25.1 µM |  |
| O=C(Nc1c(F)c(F)c(F)c(F)c1F)C1CCCCC1 | inconclusive [activator, partial curve] |  |
| COc1ccc(C(c2nnnn2C2CCCCC2)N2CCN(c3ccccc3F)CC2)cc1 (stereo not given) | inconclusive [activator, full curve] |  |
| CCOc1ccc2[nH]c(=O)c(CN(Cc3ccco3)C(CC)c3nnnn3Cc3ccccc3)cc2c1 (stereo not given) | inactive |  |
| CCOC(=O)Cn1c2c(c(-c3ccccc3OC)cc1=O)CCCC2 | inconclusive [activator, partial curve] |  |
| Cc1cccc(N(CC(=O)NC2CCCCC2)C(=O)CCC(=O)Nc2cc(C)ccn2)c1 | inactive |  |
| COc1ccc(CCCc2nnc(SCC(=O)Nc3ncc(C)s3)o2)cc1 | inactive |  |
| COc1ccc(CNc2oc(C)nc2C#N)cc1 | inconclusive [activator, partial curve] |  |
| COc1ccc(C2(CNC(C)=O)CCCC2)cc1OC | inconclusive [activator, single point] |  |
| Cc1ccc(-c2noc(CNCCCN(C)C)n2)cc1 | inconclusive [activator, single point] |  |
| CCCc1cc(=O)[nH]c(SCC(=O)N(Cc2ccccc2)C(C)C)n1 | inconclusive [activator, single point] |  |
| NC1=N[C@H](c2ccc(Cl)cc2)N(c2ccc(S(=O)(=O)Nc3ncccn3)cc2)C(N)=N1 |  | inactive: 0.758% [at 11.4 µM] |
| O=C(COc1ccc(Cl)cc1)NCc1nnc(SCC(=O)N2CCCc3ccccc32)o1 | inconclusive [activator, single point] |  |
| COc1cccc(-c2cc(C(=O)Nc3c(C)nn(Cc4ccccc4)c3C)no2)c1 | inconclusive [activator, partial curve] |  |
| Cc1noc(NS(=O)(=O)c2ccc(NC(=O)CCC3CCCC3)cc2)c1C | inactive |  |
| CCOC(=O)N1CCN(C(=O)CSc2nnc(COc3ccc(Cl)cc3)o2)CC1 | inconclusive [activator, single point] |  |
| COc1ccc(Oc2ncc3nc(-c4ccccc4)c(=O)n(Cc4cccs4)c3n2)cc1 | inconclusive [activator, single point] |  |
| COC(=O)c1ccccc1NC1c2ccccc2C(=O)N1c1cccnc1 (stereo not given) | inconclusive [activator, single point] |  |
| COc1ccc(OC)c2[nH]c(=O)c(CCNC(C)=O)cc12 | inactive |  |
| COc1ccc(C(=O)N2CCCCC2)cc1S(=O)(=O)Nc1ccccc1 | inconclusive [activator, single point] |  |
| COc1ccccc1-n1c(SCC(=O)N2CCCCC2)nnc1-c1ccccc1O | inconclusive [activator, single point] |  |
